Reference: PubChem BioAssay AID485344 (National Center for Advancing Translational Sciences (NCATS), 2010)
Hit rate of the full screen: of about 340,000 compounds, about 6,900 (2%) were called active. No stated cut-off is given here; in the data, active means inhibition above about 30%; inactive means below that, where a call was filed. The list shows a part of the results, in another mix than the full data. Where no call is shown, the source filed none.

biological target: D(2) dopamine receptor (Homo sapiens) (UniProt P14416); assay: HTS Assay for Allosteric Antagonists of the Human D2 Dopamine Receptor: Primary Screen for Antagonists; details: HEK293 TREx D2 cells, calcium flux, dopamine EC80; at 10 µM; stronger effect = higher value; further: 0% is about no effect
In short: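 Tetracycline-induced HEK293 T-REx cells expressing D2 force-coupled to calcium signalling were dye-loaded, exposed to compound for 180 s, then challenged with an EC80 of dopamine; calcium flux was followed kinetically for a further 180 s.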

Sequence of UniProt P14416 (P14416 whole entry, looked up): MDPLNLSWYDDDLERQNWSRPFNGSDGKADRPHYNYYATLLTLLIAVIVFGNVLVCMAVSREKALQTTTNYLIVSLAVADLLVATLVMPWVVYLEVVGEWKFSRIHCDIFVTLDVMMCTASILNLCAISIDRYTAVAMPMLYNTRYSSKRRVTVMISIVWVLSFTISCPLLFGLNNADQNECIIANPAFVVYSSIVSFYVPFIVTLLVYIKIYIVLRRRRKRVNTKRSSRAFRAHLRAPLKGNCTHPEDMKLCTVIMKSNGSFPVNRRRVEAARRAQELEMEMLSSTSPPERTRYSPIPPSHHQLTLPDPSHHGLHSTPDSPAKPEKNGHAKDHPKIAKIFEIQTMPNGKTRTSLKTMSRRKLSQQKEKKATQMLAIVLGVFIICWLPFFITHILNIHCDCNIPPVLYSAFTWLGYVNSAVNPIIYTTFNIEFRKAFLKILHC

SMILES	inhibition
CCOC(=O)c1nnc2c(-c3ccc(Cl)cc3)c(C)nn2c1C	-14.2%
Cc1ccc2c(c1)-c1c(cnn1CC(=O)Nc1ccccc1C#N)CO2	25.8%
Cc1ccc(OC(=O)CSc2nnc(CNC(=O)c3ccccc3)o2)cc1	-21.1%
CC(=O)N1CCCc2cc(S(=O)(=O)N3CCCC(C(=O)N4CCN(c5cc(C)ccc5C)CC4)C3)ccc21 (centres undefined)	6.49%
Cc1ccc(C(=O)COC(=O)CCC(=O)Nc2ccc(Oc3cc(C)ccc3C(C)C)cc2)cc1	-3.99%
CCc1ccc(C2=NN(CCC(=O)NCCc3ccc(Cl)cc3)C(=O)CC2)cc1	18.8%
Cc1cc(Br)ccc1NC(=O)C1CCN(S(=O)(=O)c2ccc(Br)s2)CC1	4.88%
CCOC(=O)c1ccc(N2C(=O)c3n[nH]c(-c4cccs4)c3C2c2ccc(Cl)cc2Cl)cc1 (centres undefined)	21.4%
COc1ccc(/C=C(/C#N)c2nc(-c3ccc(Br)cc3)cs2)cc1	5.89%
CCOc1ccc(NC(=O)CCS(=O)(=O)c2ccc(Br)cc2)cc1	-16.8%
COc1ccc(NC(=O)c2c(C)oc3ccc(O)c(CN4CCN(Cc5ccccc5)CC4)c23)cc1	9.54%
Cc1cccc(Cn2c(SCc3ccc(C(=O)NC4CCCCC4)cc3)nc3ccncc32)c1	-14.9%
CCc1ccc(NC(=O)C(=O)NNC(=O)c2ccc(OC)cc2)cc1	active: 43%
COc1cc(NC(=O)c2c(C)oc3ncnc(N4CCCCC4)c23)cc(OC)c1	1.62%
Cc1ccc2c(c1)c(=O)c1ccccc1n2CCCC(=O)Nc1c(F)cccc1F	3.58%
Cc1ccc(/C=C/c2onc(C)c2S(=O)(=O)N2CCC(C(=O)N3CCCCC3)CC2)cc1	active: 34.1%
CN(Cc1ccccc1)C(=O)c1cn(C)c2ccc(S(=O)(=O)N(C)C3CCCCC3)cc2c1=O	-2.46%
COc1cc(NC(=O)c2ccc(NC(=O)N3CCSc4ncccc43)cc2)cc(OC)c1	5.58%
COc1ccc(CCNC(=O)c2ccc(CNS(=O)(=O)c3ccccc3)cc2)cc1OC	7.96%
Cc1cccc(CCNC(=O)C2CCCN(S(=O)(=O)c3ccc4c(c3)oc(=O)n4C)C2)c1 (centres undefined)	0.986%
CC(C)(C)OC(=O)N1CCC(c2c(C(=O)N3CCN(C(=O)c4ccco4)CC3)cnn2-c2ccccc2)CC1	-0.371%
CCOc1cccc2sc(N(CCN(CC)CC)C(=O)c3ccco3)nc12	26%
CCC1CN(C(=O)Nc2ccc(C(=O)O)cc2)c2cc(Cl)ccc2O1 (centres undefined)	-0.302%
Cc1ccc2nc(Cl)c3cc(C(=O)NC4CCCCCC4)sc3c2c1	-13.9%

SMILES	inhibition
O=C(CSc1cn(CC(=O)N2CCCC2)c2ccccc12)Nc1cc(C(F)(F)F)ccc1Cl	-19.8%
O=C(c1ccc(CS(=O)c2ccccc2Cl)o1)N1CCN(c2cccc(Cl)c2)CC1 (centres undefined)	-0.658%
COc1ccc(C(CNC(=O)c2cccc(N(C)C)c2)N2CCCC2)cc1 (centres undefined)	active: 46.6%
CC(CNC(=O)CCCn1c(=O)c2cccn2c2cccnc21)c1ccccc1 (centres undefined)	4.35%
CC1(C)CC(=O)CC2(C1)NCC(c1ccccc1)c1c2[nH]c2ccccc12 (centres undefined)	active: 31.4%
COc1cccc(CNC(=O)c2ccc(NC(=O)N3CC(C)Sc4ccccc43)cc2)c1 (centres undefined)	14.9%
Cc1ccccc1Nc1c(-c2ccncc2)nc2ccc(Cl)cn12	3.91%
CCc1nn2c(=O)c(S(=O)(=O)Nc3cccc(F)c3)c(C)nc2s1	17.5%
CCC(Sc1nc2nccnc2c(=O)n1Cc1ccc(C)cc1)C(=O)NC1CCCCC1 (centres undefined)	-5.17%
CCOc1ccc(S(=O)(=O)Nc2ccc(-c3ccc(OC)nn3)cc2)cc1	-13.7%
Cc1cccc(-n2c(SCC(=O)c3ccccc3)nnc2-c2ccc(Br)cc2)c1	1.89%
Cc1ccc(Cl)cc1NS(=O)(=O)c1cc2c3c(c1)CC(=O)N3CCC2	10.8%
Cc1c2cnn(-c3ccccc3)c(=O)c2c(C)n1CC(=O)NCc1ccccc1	14.8%
COc1cc2c(c(OC)c1)C(c1cc(OC)c(OC)c(OC)c1)CC(=O)N2 (centres undefined)	5.78%
CCCNC(=O)N1CCN(S(=O)(=O)c2ccc3c(ccn3C)c2)CC1	-21.8%
C=CC(COCc1ccccc1)N(C(=O)OC(C)(C)C)S(=O)(=O)c1ccccc1Br (centres undefined)	active: 68%
Cc1ccc(CNC(=O)Cn2c(=O)n(-c3cccc(Cl)c3)c(=O)c3sc4ccccc4c32)cc1	0.774%
COc1ccccc1N1CCN(C(=O)c2cc3ccc4ccc(C)[nH]c4c3n2)CC1	18.9%
CCOC(=O)C1CCCN(S(=O)(=O)c2csc(C(N)=O)c2)C1 (centres undefined)	28.2%
COc1c2ccc(C(=O)NCc3cc(C(F)(F)F)cc(C(F)(F)F)c3)cc2nn1C	active: 40.8%
Cc1cccc(C(=O)NCC(=O)OCc2cc(=O)n3nc(C4CC4)sc3n2)c1	19.5%
Cc1cc(C)cc(NC(=O)CCc2c(C)nc3c4cccnc4nn3c2C)c1	-1.95%
CCOC(=O)Cn1c(=O)n(C2CCCCC2)c2nc(-c3cccc(OC)c3)nc(C(N)=O)c21	-25.6%
COc1cccc(CNC(=O)CCc2c(C)c3cc4c(C)coc4c(C)c3oc2=O)c1	17.8%

SMILES	inhibition
COc1ccc(OCC(=O)N2CCN(C(=O)c3cccc(OC)c3)CC2)cc1	-7.65%
CCc1ccccc1NC(=O)CCS(=O)(=O)c1cccc2nonc12	-1.3%
COc1ccccc1NC(=O)c1sc2nc(C)c(C(=O)Nc3ccc(C)cc3C)c(-c3ccc(C)o3)c2c1N	4.98%
Cc1ccc(-n2ncc3c(N4CCN(C)CC4)ncnc32)cc1C	24.7%
COc1ccccc1C(=O)Nc1ccnn1C1CCN(Cc2cc(C)c(C)cc2C)CC1	active: 52.8%
Cc1ccc(C)c(Cn2c(=O)cc(C)c3c(C)nn(C)c32)c1	-1.71%
CCn1c(C)c(C)c2cc(C(=O)NCc3cccc(C)c3)ccc21	2.43%
O=C(c1ccccc1)N(Cc1ccco1)Cc1cccs1	4.26%
COc1ccc(NC(=O)/C=C\C(=O)N(c2ccc(C(C)C)cc2)C(C(=O)NCc2ccco2)c2ccc(F)cc2)cc1 (centres undefined)	-3.01%
Cc1cccc(C(=O)Nc2ccc(C(=O)OCc3cc(=O)n4nc(CC(C)C)sc4n3)cc2)c1	4.26%
CCN(C(=O)C1CCN(c2ncnc3c2nc2n3CCCCC2)CC1)c1cccc(Cl)c1	-14.4%
Cc1cccc(N2CCN(c3nc4ccc(C)cc4n4cnnc34)CC2C)c1 (centres undefined)	-12.5%
COc1ccc(-n2ccnc(NCc3ccc(C)cc3)c2=O)cc1OC	-2.33%
O=C(NCC(c1ccc2c(c1)OCO2)N1CCOCC1)c1c(F)cccc1F (centres undefined)	15.4%
CCOc1ccccc1N(CC)C(=O)c1noc2c1COc1ccc(C)cc1-2	11.1%
O=C(c1ccc(F)cc1)n1nc(-c2ccccc2)nc1NCc1ccco1	-5.87%
O=C(NC1CCCCC1)c1ccc2c(c1)N(Cc1ccc(Cl)cc1)C(=O)c1ccccc1S2=O (centres undefined)	-14.8%
CCn1cc(C(=O)NCCc2ccc(Cl)cc2)c(=O)c2cc(S(=O)(=O)N3CCC(C)CC3)ccc21	-19.4%
Cc1cccc(NC(=O)CCNS(=O)(=O)c2cccc3nsnc23)c1C	10%
COc1ccc(N(CC(=O)N2CCN(c3ccccc3F)CC2)S(=O)(=O)c2c(C)n[nH]c2C)cc1	0.908%
CCN1CCN(CCCNC(=O)c2ccc3nc(Cc4ccccc4)oc3c2)CC1	18.8%
COc1ccc(N2CCN(C(=O)c3cc(S(=O)(=O)N4CCC(C)CC4)cn3C)CC2)cc1	25.3%
CC(=O)N1CCc2cc(CNS(=O)(=O)c3ccc(Cl)s3)ccc21	-21.4%
COc1ccc(-n2c(=O)c3c4c(sc3n3c(SCCC(C)C)nnc23)COC(C(C)C)C4)cc1 (centres undefined)	8.38%

SMILES	inhibition
CN1C(=O)C2(SCC(=O)N2c2ccc(F)cc2)c2ccccc21 (centres undefined)	-3.59%
COc1cc(OC)cc(C(=O)Nc2ccc3oc(-c4cccc5c(Br)cccc45)nc3c2)c1	8.61%
CCOc1ccc(OCC)c(NS(=O)(=O)c2cc(-c3onc(C)c3C)ccc2OC)c1	-1.98%
Cc1ccc(NC(=O)CN2C(=O)C3(SCC(=O)N3c3ccc(F)c(F)c3)c3ccccc32)c(C)c1 (centres undefined)	-9.71%
CCOCCCNC(=O)C(c1ccc(Cl)cc1)N(Cc1cccs1)C(=O)c1ccc(NC(C)=O)cc1 (centres undefined)	-0.0532%
CCC(=O)N1CCc2cc(Br)cc(S(=O)(=O)CCC(=O)N(CC)Cc3ccccc3)c21	-7.99%
CN(C)c1ccc(C(CNC(=O)c2c(F)cccc2Cl)N2CCOCC2)cc1 (centres undefined)	4.61%
CC(C)(Oc1ccc(Cl)cc1)C(=O)Nc1nc2ccc(S(C)(=O)=O)cc2s1	-13.3%
Cc1ccc(NC(=O)c2c(C)oc3ccc(O)c(CN4CCCCC4)c23)c(C)c1	-11.3%
Cc1ccc(-c2nnc(Nc3ccc(S(N)(=O)=O)cc3)c3ccccc23)cc1S(=O)(=O)N1CCCCC1	-0.951%
COc1ccc(CCC(=O)NCCc2csc(-c3ccc(Cl)cc3)n2)cc1	19.8%
COCCNC(=O)CSc1nc(-c2ccccc2C)nc2c1c(=O)n(C)c(=O)n2C	9.26%
NS(=O)(=O)c1ccc2nc(NC(=O)COc3ccccc3)sc2c1	4.71%
Cc1ccc(NC(=O)c2nc(S(C)(=O)=O)ncc2N(Cc2ccco2)Cc2ccco2)cc1C	-1.01%
CN(Cc1ccco1)S(=O)(=O)c1nnc(NC(=O)c2cccc(Cl)c2)s1	0.801%
CCCN(CCC)C(=O)c1cc2c(=O)n3cccc(C)c3nc2n1C	-0.553%
Cc1ccc2cccc(NC(=O)c3ccc(-c4cccc(Cl)c4)o3)c2n1	14.9%
CC(C)C(NS(=O)(=O)c1ccc2c(c1)oc(=O)n2C)C(=O)NCCc1ccc(Cl)cc1 (centres undefined)	-1.29%
Cc1ccc(NC(=O)Cn2c(=O)oc3cc(S(=O)(=O)N4CCCCCC4)ccc32)cc1Cl	-16.9%
CCCCOc1ccc(C(=O)N(Cc2nc(-c3ccc(Cl)cc3)no2)C(C)C)cc1	-3.44%
Cc1ccc(Cn2c(C)c(CNCc3ccc(OC(C)C)cc3)c(C(=O)O)c2C)cc1	-3.67%
COc1ccc(CC(=O)NCCc2sc(-c3cccc(F)c3)nc2C)cc1	-6.88%
